This passage reports Kd results from patent publication US20250333542A1 (Hoffmann-La Roche, published 2025).

Assay [1] deals with T1, Fc (kih)-IFNGR1/2 heterodimer (P1AF8126) (UniProt P15260 18-245; P38484 28-247, limits assumed).
T1 construct: Used as the soluble analyte in SPR; also called Fc (kih)-IFNGR1/R2 heterodimer; IFNGR1/R2; not shown: Fc (kih) chain
T1 sequence (looked up) 1: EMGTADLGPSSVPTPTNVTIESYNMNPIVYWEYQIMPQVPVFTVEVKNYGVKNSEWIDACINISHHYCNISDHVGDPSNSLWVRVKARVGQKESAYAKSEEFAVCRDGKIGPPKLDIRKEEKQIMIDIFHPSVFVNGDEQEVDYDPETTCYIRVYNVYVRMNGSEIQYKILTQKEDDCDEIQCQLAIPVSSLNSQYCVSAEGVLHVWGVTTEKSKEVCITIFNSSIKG
T1 sequence (looked up) 2: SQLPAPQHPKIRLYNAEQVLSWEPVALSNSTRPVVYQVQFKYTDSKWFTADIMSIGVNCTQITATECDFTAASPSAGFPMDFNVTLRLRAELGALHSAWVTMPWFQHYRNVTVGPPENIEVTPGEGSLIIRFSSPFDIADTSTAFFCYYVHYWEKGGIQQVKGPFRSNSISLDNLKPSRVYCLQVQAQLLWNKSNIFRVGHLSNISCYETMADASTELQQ
The experiment in a line: SPR, compound immobilised, Fc(kih)-IFNGR1/2 heterodimer as analyte; apparent affinity. As to the method: (§1) The binding behaviour of IFNG variants towards IFNGR1 and IFNGR1/2 was assessed by surface plasmon resonance (SPR). SPR experiments were performed on a Biacore 8K device at 25° C. with HBS-EP as running buffer (0.01 M HEPES pH 7.4, 0.15 M NaCl, 3 mM EDTA, 0.005% Surfactant P20, Biacore, Freiburg/Germany). […] IFNG mutation series compounds were immobilised at a concentration of 25 nM, 80 s contact time and 10 μL/min. Immobilisation levels up to 450 resonance units (RU) were used. Subsequently, decreasing concentrations (800-3.13 nM) of Fc (kih)-IFNGR1 monomer or Fc (kih)-IFNGR1/2 heterodimer were injected as a second analyte with a flow rate of 30 μL/min over 120 seconds and dissociation was monitored for 500 s. Bulk refractive index differences were corrected for by subtracting the response obtained in a reference flow cell, where no protein was immobilised. The affinity constants were derived from the rate constants by fitting to a 1:1 Langmuir binding.
(§2) To measure binding affinities, compounds of the mutation series were immobilised in the flow cell. As a second analyte Fc (kih)-IFNGR1 monomer or Fc (kih)-IFNGR1/R2 heterodimer were passed through the flow cell and binding affinities (KD) were calculated based on observed association and dissociation constants. Already single point mutations reduced the apparent binding affinities towards the receptors compared to the compound with C-terminal KRKRP.

The target of assay [2] is T2, Fc (kih)-IFNGR1 monomer (P1AF7104) (UniProt P15260 18-245).
T2 construct: Used as the soluble analyte in SPR; not shown: Fc (kih) part
T2 sequence (P15260 whole entry, species assumed, looked up): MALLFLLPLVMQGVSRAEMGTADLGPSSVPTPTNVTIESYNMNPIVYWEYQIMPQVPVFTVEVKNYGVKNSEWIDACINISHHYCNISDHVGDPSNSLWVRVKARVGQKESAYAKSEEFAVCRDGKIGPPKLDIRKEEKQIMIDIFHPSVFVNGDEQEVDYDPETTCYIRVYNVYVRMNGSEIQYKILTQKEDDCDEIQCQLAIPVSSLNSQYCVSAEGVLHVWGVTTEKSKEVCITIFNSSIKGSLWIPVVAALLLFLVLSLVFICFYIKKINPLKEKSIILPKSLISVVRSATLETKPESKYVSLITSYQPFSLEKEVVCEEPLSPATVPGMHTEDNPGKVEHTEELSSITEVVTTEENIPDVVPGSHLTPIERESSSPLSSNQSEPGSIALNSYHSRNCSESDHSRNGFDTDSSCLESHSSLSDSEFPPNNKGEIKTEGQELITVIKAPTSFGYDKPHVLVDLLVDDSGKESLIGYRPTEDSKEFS
The experiment in a line: SPR, compound immobilised, Fc(kih)-IFNGR1 monomer as analyte; apparent affinity. On the procedure:
as §1, §2

B1: P1AF9464 (anti-FAP 4B9 IgG-IFNG, C-terminus AKTGSRKRP) (other)
heavy: EVQLLESGGGLVQPGGSLRLSCAASGFTFSSYAMSWVRQAPGKGLEWVSAIIGSGASTYYADSVKGRFTISRDNSKNTLYLQMNSLRAEDTAVYYCAKGWFGGFNYWGQGTLVTVSSASTKGPSVFPLAPSSKSTSGGTAALGCLVKDYFPEPVTVSWNSGALTSGVHTFPAVLQSSGLYSLSSVVTVPSSSLGTQTYICNVNHKPSNTKVDKKV[human IgG1 Fc with changes skipped]GGGGSGGGGSGGGGSQDPYVKEAENLKKYFNAGHSDVADNGTLFLGILKNWKEESDRKIMQSQIVSFYFKLFKNFKDDQSIQKSVETIKEDMNVKFFNSNKKKRDDFEKLTNYSVTDLNVQRKAIHELIQVMAELSPAAKTGSRKRP
light: EIVLTQSPGTLSLSPGERATLSCRASQSVTSSYLAWYQQKPGQAPRLLINVGSRRATGIPDRFSGSGSGTDFTLTISRLEPEDFAVYYCQQGIMLPPTFGQGTKVEIKRTVAAPSVFIFPPSDEQLKSGTASVVCLLNNFYPREAKVQWKVDNALQSGNSQESVTEQDSKDSTYSLSSTLTLSKADYEKHKVYACEVTHQGLSSPVTKSFNRGEC
notes: Antibody-cytokine fusion, IgG1 P329G LALA, IFNG variant on the heavy chain C-terminus via (G4S)3; S in position 1 of KRKR; also called PIAF9464
As for B1, the Kd in assay [1] was 459 nM; in assay [2], 614 nM.

B2: P1AF9469 (anti-FAP 4B9 IgG-IFNG, C-terminus AKTGKSKRP) (other)
heavy: EVQLLESGGGLVQPGGSLRLSCAASGFTFSSYAMSWVRQAPGKGLEWVSAIIGSGASTYYADSVKGRFTISRDNSKNTLYLQMNSLRAEDTAVYYCAKGWFGGFNYWGQGTLVTVSSASTKGPSVFPLAPSSKSTSGGTAALGCLVKDYFPEPVTVSWNSGALTSGVHTFPAVLQSSGLYSLSSVVTVPSSSLGTQTYICNVNHKPSNTKVDKKV[human IgG1 Fc with changes skipped]GGGGSGGGGSGGGGSQDPYVKEAENLKKYFNAGHSDVADNGTLFLGILKNWKEESDRKIMQSQIVSFYFKLFKNFKDDQSIQKSVETIKEDMNVKFFNSNKKKRDDFEKLTNYSVTDLNVQRKAIHELIQVMAELSPAAKTGKSKRP
light: EIVLTQSPGTLSLSPGERATLSCRASQSVTSSYLAWYQQKPGQAPRLLINVGSRRATGIPDRFSGSGSGTDFTLTISRLEPEDFAVYYCQQGIMLPPTFGQGTKVEIKRTVAAPSVFIFPPSDEQLKSGTASVVCLLNNFYPREAKVQWKVDNALQSGNSQESVTEQDSKDSTYSLSSTLTLSKADYEKHKVYACEVTHQGLSSPVTKSFNRGEC
notes: Antibody-cytokine fusion, IgG1 P329G LALA, (G4S)3 linker; S in position 2 of KRKR
On to B2, for which the values for the Kd in assay [1] and in assay [2] were 652 nM and 708 nM, respectively.

B3: P1AF9471 (anti-FAP 4B9 IgG-IFNG, C-terminus AKTGSSKRP) (other)
heavy: EVQLLESGGGLVQPGGSLRLSCAASGFTFSSYAMSWVRQAPGKGLEWVSAIIGSGASTYYADSVKGRFTISRDNSKNTLYLQMNSLRAEDTAVYYCAKGWFGGFNYWGQGTLVTVSSASTKGPSVFPLAPSSKSTSGGTAALGCLVKDYFPEPVTVSWNSGALTSGVHTFPAVLQSSGLYSLSSVVTVPSSSLGTQTYICNVNHKPSNTKVDKKV[human IgG1 Fc with changes skipped]GGGGSGGGGSGGGGSQDPYVKEAENLKKYFNAGHSDVADNGTLFLGILKNWKEESDRKIMQSQIVSFYFKLFKNFKDDQSIQKSVETIKEDMNVKFFNSNKKKRDDFEKLTNYSVTDLNVQRKAIHELIQVMAELSPAAKTGSSKRP
light: EIVLTQSPGTLSLSPGERATLSCRASQSVTSSYLAWYQQKPGQAPRLLINVGSRRATGIPDRFSGSGSGTDFTLTISRLEPEDFAVYYCQQGIMLPPTFGQGTKVEIKRTVAAPSVFIFPPSDEQLKSGTASVVCLLNNFYPREAKVQWKVDNALQSGNSQESVTEQDSKDSTYSLSSTLTLSKADYEKHKVYACEVTHQGLSSPVTKSFNRGEC
notes: Antibody-cytokine fusion, IgG1 P329G LALA, (G4S)3 linker; S in positions 1 and 2 of KRKR
With B3, the Kd in assay [1] worked out at 1420 nM; in assay [2], 1730 nM.

B4: P1AF9487 (anti-FAP 4B9 IgG-IFNG, C-terminus AKTGEEKRP) (other)
heavy: EVQLLESGGGLVQPGGSLRLSCAASGFTFSSYAMSWVRQAPGKGLEWVSAIIGSGASTYYADSVKGRFTISRDNSKNTLYLQMNSLRAEDTAVYYCAKGWFGGFNYWGQGTLVTVSSASTKGPSVFPLAPSSKSTSGGTAALGCLVKDYFPEPVTVSWNSGALTSGVHTFPAVLQSSGLYSLSSVVTVPSSSLGTQTYICNVNHKPSNTKVDKKV[human IgG1 Fc with changes skipped]GGGGSGGGGSGGGGSQDPYVKEAENLKKYFNAGHSDVADNGTLFLGILKNWKEESDRKIMQSQIVSFYFKLFKNFKDDQSIQKSVETIKEDMNVKFFNSNKKKRDDFEKLTNYSVTDLNVQRKAIHELIQVMAELSPAAKTGEEKRP
light: EIVLTQSPGTLSLSPGERATLSCRASQSVTSSYLAWYQQKPGQAPRLLINVGSRRATGIPDRFSGSGSGTDFTLTISRLEPEDFAVYYCQQGIMLPPTFGQGTKVEIKRTVAAPSVFIFPPSDEQLKSGTASVVCLLNNFYPREAKVQWKVDNALQSGNSQESVTEQDSKDSTYSLSSTLTLSKADYEKHKVYACEVTHQGLSSPVTKSFNRGEC
notes: Antibody-cytokine fusion, IgG1 P329G LALA, (G4S)3 linker; E in positions 1 and 2 of KRKR
B4: in assay [1], the Kd turned out to be 1750 nM.

B5: P1AF9465 (anti-FAP 4B9 IgG-IFNG, C-terminus AKTGKRSRP) (other)
heavy: EVQLLESGGGLVQPGGSLRLSCAASGFTFSSYAMSWVRQAPGKGLEWVSAIIGSGASTYYADSVKGRFTISRDNSKNTLYLQMNSLRAEDTAVYYCAKGWFGGFNYWGQGTLVTVSSASTKGPSVFPLAPSSKSTSGGTAALGCLVKDYFPEPVTVSWNSGALTSGVHTFPAVLQSSGLYSLSSVVTVPSSSLGTQTYICNVNHKPSNTKVDKKV[human IgG1 Fc with changes skipped]GGGGSGGGGSGGGGSQDPYVKEAENLKKYFNAGHSDVADNGTLFLGILKNWKEESDRKIMQSQIVSFYFKLFKNFKDDQSIQKSVETIKEDMNVKFFNSNKKKRDDFEKLTNYSVTDLNVQRKAIHELIQVMAELSPAAKTGKRSRP
light: EIVLTQSPGTLSLSPGERATLSCRASQSVTSSYLAWYQQKPGQAPRLLINVGSRRATGIPDRFSGSGSGTDFTLTISRLEPEDFAVYYCQQGIMLPPTFGQGTKVEIKRTVAAPSVFIFPPSDEQLKSGTASVVCLLNNFYPREAKVQWKVDNALQSGNSQESVTEQDSKDSTYSLSSTLTLSKADYEKHKVYACEVTHQGLSSPVTKSFNRGEC
notes: Antibody-cytokine fusion, IgG1 P329G LALA, (G4S)3 linker; S in position 3 of KRKR
B5: the Kd turned out to be 431 nM in assay [1] and 597 nM in assay [2].

B6: P1AF9470 (anti-FAP 4B9 IgG-IFNG, C-terminus AKTGKRKSP) (other)
heavy: EVQLLESGGGLVQPGGSLRLSCAASGFTFSSYAMSWVRQAPGKGLEWVSAIIGSGASTYYADSVKGRFTISRDNSKNTLYLQMNSLRAEDTAVYYCAKGWFGGFNYWGQGTLVTVSSASTKGPSVFPLAPSSKSTSGGTAALGCLVKDYFPEPVTVSWNSGALTSGVHTFPAVLQSSGLYSLSSVVTVPSSSLGTQTYICNVNHKPSNTKVDKKV[human IgG1 Fc with changes skipped]GGGGSGGGGSGGGGSQDPYVKEAENLKKYFNAGHSDVADNGTLFLGILKNWKEESDRKIMQSQIVSFYFKLFKNFKDDQSIQKSVETIKEDMNVKFFNSNKKKRDDFEKLTNYSVTDLNVQRKAIHELIQVMAELSPAAKTGKRKSP
light: EIVLTQSPGTLSLSPGERATLSCRASQSVTSSYLAWYQQKPGQAPRLLINVGSRRATGIPDRFSGSGSGTDFTLTISRLEPEDFAVYYCQQGIMLPPTFGQGTKVEIKRTVAAPSVFIFPPSDEQLKSGTASVVCLLNNFYPREAKVQWKVDNALQSGNSQESVTEQDSKDSTYSLSSTLTLSKADYEKHKVYACEVTHQGLSSPVTKSFNRGEC
notes: Antibody-cytokine fusion, IgG1 P329G LALA, (G4S)3 linker; S in position 4 of KRKR
Consider B6, for which the Kd amounted to 535 nM in assay [1] and 604 nM in assay [2].
